# Laboratory results from publication PMC4336329 (PLoS ONE, 2015).
# The whole screen tested about 310,000 compounds, of which about 14,000 (4.5%) showed an effect of 50% or more. Effects have a minus sign here. This is one part of the list.
# Molecular target: human ether-à-go-go-related gene (hERG) potassium channel (human, UniProt Q12809)
# Experiment: primary screen, population patch clamp on CHO cells stably expressing hERG
# 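Also: peak tail current of the secondary pulse compared with the same well before compound.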
# Sequence of human ether-à-go-go-related gene (hERG) potassium channel (Q12809 whole entry, looked up): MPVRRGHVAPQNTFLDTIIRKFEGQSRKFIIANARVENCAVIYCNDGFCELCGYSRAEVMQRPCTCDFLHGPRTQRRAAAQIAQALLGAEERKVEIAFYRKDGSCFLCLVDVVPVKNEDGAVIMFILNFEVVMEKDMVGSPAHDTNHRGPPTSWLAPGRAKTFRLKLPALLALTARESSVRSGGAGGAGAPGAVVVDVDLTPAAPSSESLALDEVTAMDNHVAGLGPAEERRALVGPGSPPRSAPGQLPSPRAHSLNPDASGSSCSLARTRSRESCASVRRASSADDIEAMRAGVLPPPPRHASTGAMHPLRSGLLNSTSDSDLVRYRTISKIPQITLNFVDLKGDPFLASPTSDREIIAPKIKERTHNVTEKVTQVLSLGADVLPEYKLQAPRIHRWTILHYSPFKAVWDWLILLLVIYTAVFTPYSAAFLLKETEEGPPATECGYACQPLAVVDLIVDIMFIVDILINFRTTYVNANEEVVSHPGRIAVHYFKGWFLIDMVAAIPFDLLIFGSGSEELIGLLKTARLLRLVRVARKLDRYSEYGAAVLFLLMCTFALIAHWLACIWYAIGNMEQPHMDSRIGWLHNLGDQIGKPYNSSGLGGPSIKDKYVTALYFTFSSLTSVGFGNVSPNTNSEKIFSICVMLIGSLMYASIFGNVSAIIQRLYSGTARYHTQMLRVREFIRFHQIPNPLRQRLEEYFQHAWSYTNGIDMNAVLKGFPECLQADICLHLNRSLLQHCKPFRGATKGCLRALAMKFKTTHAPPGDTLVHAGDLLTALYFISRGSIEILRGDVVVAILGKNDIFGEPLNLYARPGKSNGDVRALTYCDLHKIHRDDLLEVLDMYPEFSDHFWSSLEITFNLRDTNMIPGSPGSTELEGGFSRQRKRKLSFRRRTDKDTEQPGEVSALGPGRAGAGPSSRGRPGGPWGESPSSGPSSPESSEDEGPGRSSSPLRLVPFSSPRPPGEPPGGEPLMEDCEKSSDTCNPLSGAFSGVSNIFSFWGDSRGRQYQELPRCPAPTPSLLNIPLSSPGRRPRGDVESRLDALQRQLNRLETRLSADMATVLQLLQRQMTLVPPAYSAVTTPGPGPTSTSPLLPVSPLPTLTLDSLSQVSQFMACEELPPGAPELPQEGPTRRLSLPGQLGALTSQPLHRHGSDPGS
row,Compound,"hERG current change (%, negative = inhibition) at 10uM [%]"
1,Cc1cc(N2C(=O)C(=O)/C(=C(/O)c3ccc(F)cc3)C2c2ccc(Cl)cc2)no1 (stereo not drawn),28.8
2,COc1cc(NC(=O)Cn2nnc(-c3ccccc3N)n2)cc(OC)c1,1.63
3,CC(=O)C1=C(O)C(=O)N(c2ccc(Br)cc2)C1c1ccccc1[N+](=O)[O-] (stereo not drawn),-21.6
4,O=C(Nc1ccccc1NC(=O)c1csnn1)c1csnn1,15.2
5,Cc1ccccc1C(=O)NC1CCN(Cc2ccccc2)CC1,-29.1
6,O=C(Cc1c[nH]c2ccccc12)N1CCN(c2ccccc2)CC1,7.12
7,O=C(CCc1ccccc1)Nc1sc2c(c1C(=O)O)CCCC2,16.3
8,CCCOc1ccc(C(=O)NC2CCSc3ccccc32)cc1 (stereo not drawn),13
9,CCn1cnc2sc(C(=O)Oc3ccc(Br)cc3)c(C)c2c1=O,18.2
10,Cc1ccc(S(=O)(=O)C2(C(=O)NCCc3ccccc3)CC2)cc1,-1.15
11,Cn1nc(N)nc1N1CCN(c2ccc(F)cc2)CC1,17.6
12,Cc1cc(C)nc(SCC(=O)N/N=C/C=C/c2ccccc2)n1,-27.7
13,CC(=O)N1CCN(C(=O)CCC(=O)O)CC1,-2.1
14,COc1ccc(NC(=O)N2CCCCC2c2cccnc2)cc1 (stereo not drawn),-10.1
15,Cc1c(F)cccc1NS(=O)(=O)c1ccc(OCCNS(C)(=O)=O)cc1,12.1
16,COc1ccc(C(=O)Nc2ccnn2C2CCN(CCC(C)c3ccc(C)o3)CC2)cc1 (stereo not drawn),-67
17,COc1ccccc1NC(=O)C(=O)NNS(=O)(=O)c1ccc2ccccc2c1,6.71
18,COc1ccc(OC)c(C2/C(=C(/O)c3ccc(C)cc3)C(=O)C(=O)N2Cc2ccco2)c1 (stereo not drawn),-7.22
19,CC1=NN(C(=O)c2ccc(Cn3ccc([N+](=O)[O-])n3)cc2)C(O)(C(F)(F)F)C1 (stereo not drawn),-8.73
20,Cn1c(O)c(/C=N/NC(=O)c2ccncc2)c(=O)[nH]c1=S,14
21,CCCCC(=O)Nc1ncc(S(=O)(=O)c2ccc([N+](=O)[O-])cc2)s1,17.9
22,O=C(COC(=O)COc1ccc(Cl)cc1)Nc1ccc2c(c1)OCCO2,-1.84
23,COC(=O)C(NS(=O)(=O)c1ccc(F)cc1)c1ccccc1 (stereo not drawn),1.53

row,Compound,"hERG current change (%, negative = inhibition) at 10uM [%]"
1,CCOC(=O)c1[nH]cnc1C(=O)Nc1ccc(Cl)cc1,5.75
2,N#Cc1c(-c2ccc(Cl)cc2)c2c([nH]c1=O)-c1ccccc1OC2,19.6
3,CN(NC(=O)c1ccccc1F)c1ccc([N+](=O)[O-])cn1,-11.2
4,COC(=O)c1c(C(=O)OC)c(-c2ccc(C)cc2)n2c1CCC2,-0.278
5,N#Cc1c(N)nc(SCC(=O)NC2CCCCC2)c(C#N)c1-c1ccc(Cl)cc1,0.478
6,Cc1csc(=O)n1CC(=O)OCc1nnc(-c2ccccc2)o1,0.132
7,COc1ccccc1NC(=S)N1CCN(c2ccccc2F)CC1,2.05
8,COc1ccccc1C(CNC(=O)c1ccc(NS(=O)(=O)c2ccc(F)c(C)c2)cc1)N1CCCC1 (stereo not drawn),-58.1
9,CCc1ccc(S(=O)(=O)Nc2ccc(Br)cn2)cc1,-0.907
10,Cc1noc(C)c1COc1ccc(C(=O)NCCc2ccc(S(N)(=O)=O)cc2)cc1,-9.58
11,COc1cc2c(cc1OC)-c1nnc(-c3cccs3)n1C(C)(C)C2,-38.3
12,Fc1ccc2c(c1)C(c1ccncc1)=NNC(c1ccc(Br)cc1)=N2,-1.97
13,COc1ccc(CNS(=O)(=O)c2c(C)[nH]c(C)c2C(=O)N2CCCC2)cc1,17.6
14,CC(C)CN(C(=O)COC(=O)c1c2c(nc3ccccc13)CCC2)c1c(N)n(Cc2ccccc2)c(=O)[nH]c1=O,4.06
15,O=C(C/C=N/OCc1ccccc1F)c1cnc(-c2ccc(Cl)cc2)s1,16.5
16,O=S(=O)(CCc1nnc(-c2ccccc2)o1)c1ccc2ccccc2c1,3.03
17,O=C(NCC(=O)N1CCCCCC1)c1ccc(OC(F)F)cc1,-11.3
18,Cc1cc(C)cc(NC(=S)N2CCC(NC(=O)c3ccco3)CC2)c1,7.82
19,CCC(=NCc1cccnc1)c1c(O)n(-c2ccc(C)cc2)c(=O)[nH]c1=O,-8.04
20,O=C(NNS(=O)(=O)c1ccc(Cl)cc1)c1cc(-c2ccccc2)nc2ccccc12,-0.297
21,COc1ccccc1N1CCN(CCCOc2ccc(F)cc2)CC1,-71.8
22,Cc1ccc(C(C(=O)NC(C)(C)C)N(Cc2cccnc2)C(=O)C(=O)NC2CCCCC2)o1 (stereo not drawn),8.62
23,Cc1ccc(C(=O)C2C(c3cccs3)NC(=O)NC2(O)C(F)(F)F)cc1 (stereo not drawn),-2.25

row,Compound,"hERG current change (%, negative = inhibition) at 10uM [%]"
1,Cc1ccc(C(=O)OCC(=O)c2c[nH]c3ccccc23)cc1S(=O)(=O)N1CCCCC1,-1.63
2,Cc1ccc(C)c(OCCC(=O)OCC(=O)N2CCN(c3ccccc3)CC2)c1,-19
3,CC(C)N1CCC(N2CCN(CCCn3cccn3)CC2CCO)CC1 (stereo not drawn),-28
4,NC(=O)c1ccc[n+](CC(=O)c2ccc(F)cc2)c1.[Br-],14.5
5,Brc1ccc(OCc2ccccc2)c(CNCC2CCCO2)c1.Cl (stereo not drawn),-50
6,COC(=O)c1cccc(S(=O)(=O)N2CCOCC2)c1,6.61
7,CC(OC(=O)CCCc1nc2ccccc2s1)C(N)=O (stereo not drawn),-4.81
8,CCc1noc(C)c1C(=O)Nc1nc(-c2ccc(Cl)cc2Cl)c(C)s1,6.75
9,CCOP(=O)(OCC)C(Nc1ccc(C)cc1)c1ccco1 (stereo not drawn),12.1
10,COc1ccc(/C(C)=N/N=C(N)N)c(O)c1,-1.13
11,O=C(/C=C/c1ccco1)Nc1ccccc1N1CCCCC1,15.3
12,S=c1nc(C2CC2)n(-c2ccccc2)[nH]1,7.34
13,Cl.c1ccc2c(c1)CCCC2C1=NCCN1 (stereo not drawn),-10
14,CCCCn1c(CNC(C)=O)nc2ccccc21,3.5
15,CCn1c(SCC(=O)Nc2ccccc2C)nnc1-c1ccccc1O,1.99
16,Cc1ccccc1OCC(=O)Nc1ccc(C(N)=O)cc1,1.77
17,Cc1ccc(CN(C)S(=O)(=O)c2c(C)noc2/C=C/N(C)C)cc1,15.6
18,COc1ccc(NC(=O)c2cc(S(=O)(=O)N3CCCC3)oc2C)cc1,18.8
19,CCOC(=O)N1CCC(Nc2c([N+](=O)[O-])cc(C(=O)O)cc2[N+](=O)[O-])CC1,20.4
20,O=c1cc(CSc2ccccc2)[nH]c(=S)[nH]1,19.4
21,COc1ccc(S(=O)(=O)NC(C)C(=O)NC2CC2)cc1C (stereo not drawn),-0.0326
22,O=C(CN1C(=O)/C(=C\c2ccccc2Cl)Oc2ccccc21)NCc1cccnc1,10.3
23,COc1ccc(OC)c(-c2csc(NC(=O)C3=NNC(=O)CC3)n2)c1,8.91

row,Compound,"hERG current change (%, negative = inhibition) at 10uM [%]"
1,O=C1CCCC(=O)C1CS(=O)(=O)c1ccccc1,8.6
2,O=c1c2ccccc2nc(-c2ccccc2)n1O,4.42
3,CCC1(CC)NC(=O)N(CC(=O)OCC(=O)Nc2ccccc2OC(F)F)C1=O,10.6
4,CCC(=O)Nc1ccc(C(=O)Nc2cccc(C)n2)cc1,16.7
5,COc1ccc(N2C(=O)CC(N3CCOCC3)C2=O)cc1 (stereo not drawn),12.7
6,COC(OC)c1ccc(C#N)c(SCc2ccccc2)n1,4.03
7,O=C(O)C1C2CCC(C2)C1C(=O)NCCc1cccc(Cl)c1 (stereo not drawn),17.2
8,COCCN1Cc2cccc(C(=O)NCc3ccccn3)c2C1=O,14.3
9,COc1cc(C2C(C#N)=C(N)N(N(C)C)C3=C2C(=O)CCC3)cc(OC)c1OC (stereo not drawn),11.1
10,COc1ccccc1N1CCN(C(=O)c2cc(-c3cccs3)on2)CC1,-22.7
11,N#C/C(=C\c1ccc(O)c([N+](=O)[O-])c1)C(=O)NCc1ccccc1,14.9
12,O=C(Nc1cccc(F)c1)C1CCCN(c2cnccn2)C1 (stereo not drawn),4.24
13,COC(=O)c1cc(Nc2cc(C)nc3ncnn23)cc(C(=O)OC)c1,5.27
14,COc1ccccc1CNC(=O)COC(=O)c1ccccn1,6.14
15,CCC(=O)c1ccc(OCC(=O)OC(C)C(=O)NCc2ccc3c(c2)OCO3)cc1 (stereo not drawn),12.9
16,CCOC(=O)N1CCC(N2C(=O)c3ccccc3C2Nc2ccc(C)cc2)CC1 (stereo not drawn),-32.8
17,CC(=O)c1cccc(NC(=O)C2CCN(S(=O)(=O)c3c(C)n[nH]c3C)CC2)c1.Cl,-8.06
18,COc1cccc(/C=C2\SC(=O)N(CC(=O)NC3C=CS(=O)(=O)C3)C2=O)c1 (stereo not drawn),5.26
19,COc1ccc(C(=O)NCCSCc2ccccc2)cc1OC,-5.31
20,O=C(NCCc1ccc(F)cc1)c1ccc(S(=O)(=O)N2CCCC2)cc1,-2.05
21,CC(C)CCSc1nc2c(c(=O)[nH]c(=O)n2C)n1CCCc1ccccc1,6.16
